The campaign covered roughly 46,000 compounds. About 60 (0.1%) were called active. Not shown: some 3% with an inconclusive outcome. The call rests on the fitted dose curve; in most records, active means well fitted inhibition curve with a large enough effect; inconclusive means small, poorly fitted or top-dose-only effect; inactive means no such curve, though single readings can be large or run the other way. The list shows a part of the results.

This test is described as follows: Primary qHTS assay for Inhibitors of ovarian cancer metastasis using an organotypic tumor microenvironment (TME) model. Further: nearly all actives have a fitted effect of over 65% in size.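 On activity change, negative = inhibition: plate controls were DMSO wells for no effect and tomatine positive control wells for full effect.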 The settings on record: SKOV3ip1-GFP adhesion/invasion on 3D omental model, fluorescence; series mostly up to 45.8 µM; activity change, negative = inhibition: at the top concentration. Put shortly: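 qHTS, 4-pt dose (0.36-46 umol/L); SKOV3ip1-GFP, 1,200 cells/well, no FBS; primary omental fibroblast/mesothelial co-culture 48 h pre-grown; 2 h RT + 16 h 37 C; PBS wash, 4% PFA; GFP count 488/509 nm.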
On the technique in general: Quantitative high-throughput screening tests each substance at several concentrations.
In the case of `COc1ccccc1CNC(=O)CSc1nnc(C)c2c(C)n(-c3ccccc3)nc12`, the “activity change, negative = inhibition” value was inactive: -2.03%.
Still for that read-out and setting: the figure for `O=C(CSc1nc2c(c(=O)[nH]1)CN(Cc1ccc3c(c1)OCO3)CC2)Nc1ccccc1Cl` is inactive: 18.8%; for `COc1cccc(Cn2c(CNS(=O)(=O)c3ccc(Cl)s3)nc3cccnc32)c1` it is inactive: -34.9%.
With `CCc1ccc(-n2nc3ccc(NC(=O)COc4ccc(OC)cc4)cc3n2)cc1`, the call was inactive.
For the compound `CNNCc1ccc(C(=O)NC(C)C)cc1`, the “activity change, negative = inhibition” value is inactive: 2%.
Same read-out and setting: the figure for `CCc1nn2c(=O)c(S(=O)(=O)Nc3ccc(C(C)C)cc3)c(C)nc2s1` is inactive: 3.58%; for `CC(=O)N1CCCc2cc(S(=O)(=O)N3CCCC(C(=O)NCc4ccc(C)cc4)C3)ccc21` (stereo unspecified) it is inactive: -10.3%; for `CCOc1ccc(NCc2nc3ccccc3n2CCOc2ccc(C)cc2)cc1` it is inactive: 7.71%.
On the same count and under the same terms, the figure for `CCOc1ccc(NC(=O)CSc2nc3ccsc3c(=O)n2CCCCCC(=O)O)cc1` is inactive: 23.6%.
As for `Cc1cccn2c(=O)c3cc(C#N)c(=O)n(-c4nnc(SCc5ccc(Cl)cc5)s4)c3nc12`, the result was inactive.
In the case of `CCOc1ccc(Cn2c(=O)sc3ccccc32)cc1`, the “activity change, negative = inhibition” value was inactive: -1.44%.
On to `Cc1c(Cl)cccc1NC(=O)CCOc1ccccc1`, for which the outcome was inactive.
For `CC(=O)N1CCc2cc(S(=O)(=O)NC(CC(C)C)C(=O)Nc3cc(C)cc(C)c3)ccc21` (stereo unspecified), the “activity change, negative = inhibition” value was inactive: -4.69%.
Consider `Cc1cccc(C)c1NC(=O)CS(=O)(=O)c1nc(-c2ccc(Cl)cc2)cn1-c1ccccc1`, for which the “activity change, negative = inhibition” value was inactive: 0.475%.
Same read-out and setting: the figure for `CCC(=O)C1=C(c2ccc(C)cc2)N(C(=O)CC)n2c(nnc2C2CCCCC2)S1` is inactive: -9.26%.
Same read-out and setting: the figure for `CC1=C(C(=O)Nc2ccccc2C)C(c2ccccn2)n2ncnc2N1` (stereo unspecified) is inactive: 10.4%; for `CCOC(=O)c1nc(NCc2ccc(Cl)cc2)c2c(C)noc2n1` it is inactive: -1.12%; for `COc1ccc(NC(=O)CSc2nc(-c3cccc(C)c3)[nH]c2-c2ccccc2)cc1OC` it is inactive: 8.18%.
As for `Cc1ccc(C)c(-c2ccc(=O)n(Cc3c(F)cccc3Cl)n2)c1`, the “activity change, negative = inhibition” value is inactive: -4.35%.
On the same count and under the same terms, the figure for `CC(=O)N1CCc2c(sc3c2c(=O)n(CCc2ccccc2)c(=O)n3Cc2ccccc2C)C1` is inactive: -12%.
`Cc1ccc(C)c(Cn2c(=O)c3c(nc4n3CCN4c3ccccc3)n(C)c2=O)c1`: the call was inactive.
Still for that read-out and setting: with `Cc1ccc(NC(=O)CN2C(=O)COc3ccc(S(=O)(=O)NC4CCCC4)cc32)cc1N(C)C` the entry was “inactive”; with `Cc1cc(C)c2c(c1)c(C)cc1nnc(SCc3ccccc3C#N)n12`, “inactive”.
With `CC(C)Sc1ncc(Cl)c(C(=O)Nc2ccc(S(=O)(=O)N3CCCCC3)cc2)n1`, the “activity change, negative = inhibition” value was inactive: 5.02%.
On to `CCN(CC)S(=O)(=O)c1ccc2c(c1)c(=O)c(C(=O)N1CCN(c3cc(Cl)ccc3C)CC1)cn2C`, for which the result was inactive.
For the compound `CC(C)c1noc(-c2ccccc2OCC(=O)Nc2cccc([N+](=O)[O-])c2)n1`, the “activity change, negative = inhibition” value is inactive: -0.232%.
Still for that read-out and setting: the figure for `CCOc1ccc(-c2c(C)nn3c(C)c(C(=O)Nc4cc(C)cc(C)c4)cnc23)cc1OCC` is inactive: -12.9%; for `Cc1ccc(CN(C(=O)COc2cc(C)c(Cl)c(C)c2)c2ccccn2)o1` it is inactive: 13.1%.
For the compound `COc1ccc(-c2nc3scc(CCNS(=O)(=O)c4ccc5c(c4)OCCO5)n3n2)cc1`, the call was inactive.
`CC(=O)N1CCc2cc(Br)cc(S(=O)(=O)CCC(=O)N3CCN(c4ccccc4Cl)CC3)c21`: the “activity change, negative = inhibition” value is inactive: 3.38%.
Same read-out and setting: the figure for `CCOc1ccc(Nc2c(S(=O)(=O)c3ccccc3)cnc3ccc(F)cc23)cc1` is inactive: -5.63%.
Turning to `O=C(Oc1ccccc1F)c1nc(SCc2ccc(F)cc2)ncc1Cl`, the call was inactive.
As for `Cc1ccc(-c2cc3nc(-c4ccccc4)cc(C(F)(F)F)n3n2)cc1`, the call was inactive.
In the case of `COc1cc(C2CC(=O)Oc3c2c(=O)[nH]c2ccccc32)cc(OC)c1OC` (stereo unspecified), the “activity change, negative = inhibition” value is inactive: -9.17%.
`Cc1ccc(NC(=O)C2CCN(S(=O)(=O)c3cccc4nonc34)CC2)cc1C`: the compound was called inactive.
As to `COc1ccccc1N1CCN(S(=O)(=O)c2c(C)nc3sccn3c2=O)CC1`, the “activity change, negative = inhibition” value was inactive: 1.69%.
For `Cc1ccc(S(=O)(=O)c2c(O)cc(C)c(NS(=O)(=O)c3ccc(Cl)cc3)c2C)cc1`, the call was inactive.
Still for that read-out and setting: with `CC(C)c1nn2c(=O)cc(COC(=O)c3ccco3)nc2s1` the entry was “inactive”.
In the case of `Cc1c(C)c2cc3c(c(C)c2oc1=O)OCN(CCc1ccc(F)cc1)C3`, the “activity change, negative = inhibition” value is inactive: -7.09%.
`Cc1nn2c(C)c(C(=O)NC(C)(C)C)cnc2c1-c1ccc(F)cc1`: the “activity change, negative = inhibition” value is inactive: 2.62%.
For `COc1ccccc1C(=O)Nc1ccc(C(=O)OCc2cc(=O)n3nc(C4CC4)sc3n2)cc1`, the “activity change, negative = inhibition” value is inactive: 7.53%.
With `COc1ccc(N2C(=O)CSC23C(=O)N(CC(=O)NCCc2ccccc2)c2ccccc23)cc1` (stereo unspecified), the “activity change, negative = inhibition” value was inactive: 21.9%.
Turning to `O=C(CSc1nc(=O)[nH]c2c1CCCC2)NCc1ccccc1`, the compound was called inactive.
With `CCc1ccc(Cn2c(CNS(=O)(=O)c3ccc(C)c(C)c3)nc3cccnc32)cc1`, the “activity change, negative = inhibition” value was inactive: 9.63%.
The same measure, in the same setting: the figure for `COc1ccc(NC(=O)Cn2c(=O)n(Cc3ccccc3)c(=O)c3sc4ccccc4c32)cc1` is inactive: 24.9%; for `CCOc1ccc(C(=O)Nc2ccc3oc(-c4ccc5ccccc5c4)nc3c2)cc1` it is inactive: 3.39%.

The record behind these values is PubChem BioAssay AID1963576 (National Center for Advancing Translational Sciences (NCATS), 2024).
